From the supplement of paper PMC12217912
This is one part of the list. Sequences were assembled here from the parent chain. Values near 0.05 are background.

B1: TEV protease; numbered along this chain (parent)
chain: MGESLFKGPRDYNPISSSICHLTNESDGHTTSLYGIGFGPFIITNKHLFRRNNGTLVVQSLHGVFKVKDTTTLQQHLVDGRDMIIIRMPKDFPPFPQKLKFREPQREERICLVTTNFQTKSMSSMVSDTSCTFPSGDGIFWKHWIQTKDGQCGSPLVSTRDGFIVGIHSASNFTNTNNYFTSVPKNFMELLTNQEAQQWVSGWRLNADSVLWGGHKVFMVKPEEPFQPVKEATQL

Variants of: B1
Assay: raw area under fraction-flipped curve 0-4 h after induction (AUC4h, not background-subtracted), DNA-recorder readout of cleavage of the substrate (dimensionless); higher = more cleavage of the substrate by the protease variant
Conditions: temperature: 34 °C; time window: 0-4 h after rhamnose induction
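Further: Bxb1 expression induced with 0.2% (w/v) L-rhamnose at OD600 near 0.5, cultures sampled hourly, flipped fraction per protease–substrate barcode pair counted by paired-end Illumina sequencing.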

Row | Variant | area with substrate ENAYFQS | area with substrate ENCYFQS | area with substrate ENDYFQS | area with substrate ENEYFQS | area with substrate ENFYFQS | area with substrate ENGYFQS | area with substrate ENNYFQS | area with substrate ENPYFQS | area with substrate ENQYFQS | area with substrate ENRYFQS | area with substrate ENSYFQS | area with substrate ENTYFQS | area with substrate ENVYFQS | area with substrate ENWYFQS | area with substrate ENHYFQS | area with substrate ENIYFQS | area with substrate ENKYFQS | area with substrate ENYYFQS | area with substrate ENMYFQS
1 | MGESLFKGPRDYNPISSSICHLTNESDGHTTSLYGIGFGPFIITNKHLFRRNNGTLVVQSLHGVFKVKDTTTLQQHLVDGRDMIIIRMPKDFPPFPQKLKFREPQREERICLVTTNFQTKSMSSMVSDTSCTFPSGDGIFWKHWIQTKDGQCGSPLVSTRDGFIVGIHSASNFTNTNNYFTSVPKNFMELLTNQEAQQWVSGWRLNADSVLWKGHKVFMVKPEEPFQPVKEATQL [G213K] | 0.0596 | 0.0487 | 0.0635 | 0.0554 | 0.0601 | 0.0601 | 0.0532 | 0.0588 | 0.0565 | 0.0535 | 0.0661 | 0.0597 | 0.0691 | 0.0506 |  |  |  |  | 
2 | MGESLFKGPRDYNPISSSICHLTNESDGHTTSLYGIGFGPFIITNKHLFRRNNGTLVVQSLHGVFKVKDTTTLQQHLVDGRDMIIIRMPKDFPPFPQKLKFREPQREERICLVTTNFQTKSMSSMVSDTSCTFPSGDGIFWKHWIQTKDGQCGSPLVSTRDGFIVGIHSASNFTNTNNYFTSVPKNFMELLTNQEAQQWVSGWRLNADSVLWYGHKVFMVKPEEPFQPVKEATQL [G213Y] | 0.0622 | 0.0442 | 0.0673 | 0.0596 | 0.0336 | 0.0556 | 0.0635 | 0.0537 | 0.0678 |  | 0.0615 | 0.0725 | 0.0488 | 0.0458 | 0.0604 | 0.043 | 0.0632 |  | 
3 | MGESLFKGPRDYNPISSSICHLTNESDGHTTSLYGIGFGPFIITNKHLFRRNNGTLVVQSLHGVFKVKDTTTLQQHLVDGRDMIIIRMPKDFPPFPQKLKFREPQREERICLVTTNFQTKSMSSMVSDTSCTFPSGDGIFWKHWIQTKDGQCGSPLVSTRDGFIVGIHSASNFTNTNNYFTSVPKNFMELLTNQEAQQWVSGWRLNADSVLWGVHKVFMVKPEEPFQPVKEATQL [G214V] | 0.0583 | 0.0813 |  | 0.0684 | 0.0643 |  | 0.0569 | 0.0835 | 0.0614 | 0.0405 | 0.0559 | 0.0592 | 0.0572 |  |  |  |  | 0.0584 | 
4 | MGESLFKGPRDYNPISSSICHLTNESDGHTTSLYGIGFGPFIITNKHLFRRNNGTLVVQSLHGVFKVKDTTTLQQHLVDGRDMIIIRMPKDFPPFPQKLKFREPQREERICLVTTNFQTKSMSSMVSDTSCTFPSGDGIFWKHWIQTKDGQCGSPLVSTRDGFIVGIHSASNFTNTNNYFTSVPKNFMELLTNQEAQQWVSGWRLNADSVLWGGGKVFMVKPEEPFQPVKEATQL [H215G] | 0.0606 | 0.0616 | 0.0719 | 0.0559 | 0.0662 |  | 0.0603 | 0.0646 | 0.0627 | 0.0603 | 0.0617 | 0.0483 | 0.0661 |  | 0.0606 |  | 0.0512 |  | 
5 | MGESLFKGPRDYNPISSSICHLTNESDGHTTSLYGIGFGPFIITNKHLFRRNNGTLVVQSLHGVFKVKDTTTLQQHLVDGRDMIIIRMPKDFPPFPQKLKFREPQREERICLVTTNFQTKSMSSMVSDTSCTFPSGDGIFWKHWIQTKDGQCGSPLVSTRDGFIVGIHSASNFTNTNNYFTSVPKNFMELLTNQEAQQWVSGWRLNADSVLWGGHKHFMVKPEEPFQPVKEATQL [V217H] | 0.0576 | 0.0613 | 0.052 | 0.0633 | 0.049 | 0.0727 | 0.073 |  | 0.0586 | 0.072 | 0.0585 | 0.0622 | 0.0658 |  |  |  |  | 0.0459 | 0.0586
6 | MGESLFKGPRDYNPISSSICHLTNESDGHTTSLYGIGFGPFIITNKHLFRRNNGTLVVQSLHGVFKVKDTTTLQQHLVDGRDMIIIRMPKDFPPFPQKLKFREPQREERICLVTTNFQTKSMSSMVSDTSCTFPSGDGIFWKHWIQTKDGQCGSPLVSTRDGFIVGIHSASNFTNTNNYFTSVPKNFMELLTNQEAQQWVSGWRLNADSVLWGGHKNFMVKPEEPFQPVKEATQL [V217N] | 0.0564 | 0.0548 | 0.0654 | 0.0697 |  |  |  |  | 0.0549 | 0.0708 |  |  | 0.0607 |  | 0.0639 |  |  | 0.069 | 
7 | MGESLFKGPRDYNPISSSICHLTNESDGHTTSLYGIGFGPFIITNKHLFRRNNGTLVVQSLHGVFKVKDTTTLQQHLVDGRDMIIIRMPKDFPPFPQKLKFREPQREERICLVTTNFQTKSMSSMVSDTSCTFPSGDGIFWKHWIQTKDGQCGSPLVSTRDGFIVGIHSASNFTNTNNYFTSVPKNFMELLTNQEAQQWVSGWRLNADSVLWGGHKVHMVKPEEPFQPVKEATQL [F218H] | 0.047 | 0.097 | 0.0524 | 0.0693 | 0.0618 | 0.0691 |  | 0.0644 | 0.0753 |  | 0.0738 | 0.0536 | 0.0702 |  |  |  | 0.0424 |  | 
8 | MGESLFKGPRDYNPISSSICHLTNESDGHTTSLYGIGFGPFIITNKHLFRRNNGTLVVQSLHGVFKVKDTTTLQQHLVDGRDMIIIRMPKDFPPFPQKLKFREPQREERICLVTTNFQTKSMSSMVSDTSCTFPSGDGIFWKHWIQTKDGQCGSPLVSTRDGFIVGIHSASNFTNTNNYFTSVPKNFMELLTNQEAQQWVSGWRLNADSVLWGGHKVFDVKPEEPFQPVKEATQL [M219D] | 0.0586 | 0.06 | 0.0455 | 0.057 | 0.0592 | 0.0619 |  | 0.0596 | 0.063 | 0.0595 | 0.0584 | 0.0632 | 0.0665 | 0.0531 |  | 0.0779 | 0.062 | 0.0612 | 
9 | MGESLFKGPRDYNPISSSICHLTNESDGHTTSLYGIGFGPFIITNKHLFRRNNGTLVVQSLHGVFKVKDTTTLQQHLVDGRDMIIIRMPKDFPPFPQKLKFREPQREERICLVTTNFQTKSMSSMVSDTSCTFPSGDGIFWKHWIQTKDGQCGSPLVSTRDGFIVGIHSASNFTNTNNYFTSVPKNFMELLTNQEAQQWVSGWRLNADSVLWGGHKVFLVKPEEPFQPVKEATQL [M219L] | 0.0597 |  |  | 0.0538 | 0.0636 |  | 0.0578 | 0.0685 |  |  | 0.0283 | 0.0369 |  |  | 0.0442 | 0.131 |  |  | 
10 | MGESLFKGPRDYNPISSSICHLTNESDGHTTSLYGIGFGPFIITNKHLFRRNNGTLVVQSLHGVFKVKDTTTLQQHLVDGRDMIIIRMPKDFPPFPQKLKFREPQREERICLVTTNFQTKSMSSMVSDTSCTFPSGDGIFWKHWIQTKDGQCGSPLVSTRDGFIVGIHSASNFTNTNNYFTSVPKNFMELLTNQEAQQWVSGWRLNADSVLWGGHKVFQVKPEEPFQPVKEATQL [M219Q] | 0.0554 | 0.0604 | 0.0632 | 0.0637 | 0.0503 | 0.0641 |  | 0.0606 | 0.0633 | 0.0592 | 0.0532 | 0.0586 | 0.0621 |  | 0.0536 | 0.0677 | 0.0603 | 0.0437 | 0.0556
